{
  "source": "patent US10294218B2",
  "about": "(VIROSTATICS SRL, priority 2012, dated 2019)",
  "tested_on": "laboratory strain of HIV-1",
  "assay": "Antiviral activity against HIV (AV), p24 in infected activated primary T cells",
  "type": "cell-based",
  "conditions": "Human immunodeficiency virus 1, T-cell, read-out: AV50 (Inhibitory concentration 50% for antiviral activity)",
  "method": "Activated primary T cells are infected with a laboratory strain of HIV-1, then cultured and exposed to different concentrations of the test compounds. HIV replication is analysed by measuring the viral protein p24 and expressed as percentage of untreated control. Inhibition of viral replication (AV) is then calculated (AV=100 minus the % p24 compared to control, AV of control=0%). Inhibitory concentration 50% for antiviral activity (AV50) is calculated.\nIn Tables 2, 3 and 4, ND means Not Determined.",
  "data": [
    {"smiles": "CC[C@H](CO)Nc1nc(NCc2ccccc2)c2ncn(C(C)C)c2n1", "note": "[Roscovitine, reference compound]", "values": [
      {"measurement": "IC50", "value": 9, "unit": "µM"}
    ]}
  ]
}
